{"sequences": {"note": "Sequences of proteins named here, by UniProt entry; tags and fusion partners are left off.", "UniProt P40763": "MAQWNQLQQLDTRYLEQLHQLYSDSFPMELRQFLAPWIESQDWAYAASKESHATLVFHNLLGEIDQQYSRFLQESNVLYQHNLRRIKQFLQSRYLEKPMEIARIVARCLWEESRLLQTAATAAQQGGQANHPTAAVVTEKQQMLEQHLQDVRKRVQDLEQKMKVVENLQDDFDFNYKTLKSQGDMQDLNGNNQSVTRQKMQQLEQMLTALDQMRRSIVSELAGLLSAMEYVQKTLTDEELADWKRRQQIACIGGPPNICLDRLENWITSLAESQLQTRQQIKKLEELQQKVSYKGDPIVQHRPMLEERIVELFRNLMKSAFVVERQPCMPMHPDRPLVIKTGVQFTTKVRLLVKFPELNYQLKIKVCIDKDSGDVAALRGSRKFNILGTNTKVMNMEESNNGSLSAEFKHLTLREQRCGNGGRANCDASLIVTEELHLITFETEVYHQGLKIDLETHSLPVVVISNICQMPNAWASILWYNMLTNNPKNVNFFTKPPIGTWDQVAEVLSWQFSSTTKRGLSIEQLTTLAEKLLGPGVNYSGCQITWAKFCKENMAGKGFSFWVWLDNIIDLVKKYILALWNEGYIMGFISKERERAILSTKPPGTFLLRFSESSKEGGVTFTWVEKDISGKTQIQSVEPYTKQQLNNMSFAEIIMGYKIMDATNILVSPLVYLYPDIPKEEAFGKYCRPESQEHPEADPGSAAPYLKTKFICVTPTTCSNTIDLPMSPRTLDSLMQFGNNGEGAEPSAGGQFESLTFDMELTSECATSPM", "UniProt P29350": "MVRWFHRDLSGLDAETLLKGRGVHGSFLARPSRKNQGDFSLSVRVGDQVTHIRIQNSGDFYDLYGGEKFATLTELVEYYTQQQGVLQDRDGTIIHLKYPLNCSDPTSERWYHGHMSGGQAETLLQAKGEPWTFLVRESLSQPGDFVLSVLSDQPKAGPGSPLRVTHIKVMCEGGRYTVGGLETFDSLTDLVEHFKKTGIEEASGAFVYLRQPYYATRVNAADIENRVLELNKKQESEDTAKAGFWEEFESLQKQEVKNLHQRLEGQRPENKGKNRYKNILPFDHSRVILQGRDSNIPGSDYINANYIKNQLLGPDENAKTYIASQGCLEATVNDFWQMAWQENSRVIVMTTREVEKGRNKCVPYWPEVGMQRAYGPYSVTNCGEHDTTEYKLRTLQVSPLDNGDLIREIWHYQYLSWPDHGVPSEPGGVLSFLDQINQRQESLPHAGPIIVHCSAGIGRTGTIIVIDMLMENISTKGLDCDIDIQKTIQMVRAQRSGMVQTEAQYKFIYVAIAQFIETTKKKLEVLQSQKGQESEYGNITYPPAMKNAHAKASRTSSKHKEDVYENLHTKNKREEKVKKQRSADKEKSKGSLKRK"}, "source": "paper PMC11358511", "key": {"[1]": {"target": "T1, Flag-ETHE1 (ethylmalonic encephalopathy protein 1) (human) (UniProt O95571)", "T1 sequence": "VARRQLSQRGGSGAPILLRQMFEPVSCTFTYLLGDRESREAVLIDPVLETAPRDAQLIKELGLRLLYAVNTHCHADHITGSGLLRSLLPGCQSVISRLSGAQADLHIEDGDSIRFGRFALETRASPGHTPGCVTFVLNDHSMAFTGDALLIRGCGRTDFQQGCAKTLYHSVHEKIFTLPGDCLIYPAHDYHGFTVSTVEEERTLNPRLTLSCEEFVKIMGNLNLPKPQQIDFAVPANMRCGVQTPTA", "assay": "co-IP; HEK293T cells transfected with Flag-ETHE1 only; whole cell lysate; IP with anti-Flag beads; immunoblot for TC45, SHP1 and SHP2"}, "[2]": {"target": "T2, endogenous ETHE1 (human (endogenous in SW48)) (UniProt O95571)", "T2 sequence": "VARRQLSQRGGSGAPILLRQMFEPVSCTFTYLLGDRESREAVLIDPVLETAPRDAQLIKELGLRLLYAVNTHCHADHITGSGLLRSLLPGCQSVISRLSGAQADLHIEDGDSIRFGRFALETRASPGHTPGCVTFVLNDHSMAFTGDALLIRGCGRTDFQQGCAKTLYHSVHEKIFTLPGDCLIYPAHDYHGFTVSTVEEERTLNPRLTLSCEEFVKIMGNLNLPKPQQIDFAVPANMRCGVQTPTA", "assay": "co-IP; endogenous proteins; whole cell lysates of SW48 (and SW480) cells; IP with anti-STAT3, anti-ETHE1 or anti-TC45 antibody or IgG on Protein A/G beads overnight at 4 °C; immunoblot"}, "[3]": {"target": "endogenous STAT3 (human (endogenous in SW48 and SW480)) (UniProt P40763)", "assay": "co-IP; endogenous proteins; whole cell lysates of SW48 (and SW480) cells; IP with anti-STAT3, anti-ETHE1 or anti-TC45 antibody or IgG on Protein A/G beads overnight at 4 °C; immunoblot"}, "[4]": {"target": "T1, Flag-ETHE1 (ethylmalonic encephalopathy protein 1) (human)", "assay": "co-IP; HEK293T cells co-transfected with tagged plasmids (HA-STAT3, Flag-ETHE1, Myc-TC45); whole cell lysates in NP40 buffer; IP with anti-HA, anti-Flag or anti-c-Myc magnetic beads overnight at 4 °C; five washes with lysis buffer; immunoblot; for STAT3 with TC45 with vector or Flag-ETHE1 co-transfected"}, "[5]": {"target": "HA-STAT3 (UniProt P40763)", "assay": "co-IP; HEK293T cells co-transfected with tagged plasmids (HA-STAT3, Flag-ETHE1, Myc-TC45); whole cell lysates in NP40 buffer; IP with anti-HA, anti-Flag or anti-c-Myc magnetic beads overnight at 4 °C; five washes with lysis buffer; immunoblot; for STAT3 with TC45 with vector or Flag-ETHE1 co-transfected"}, "[6]": {"target": "Flag-STAT3 protein (UniProt P40763)", "assay": "pull-down; in vitro binding assay; Flag-STAT3 incubated with His-ETHE1 alone or with His-ETHE1 and His-TC45 together, rotated with anti-Flag magnetic beads overnight at 4 °C; five washes with lysis buffer; immunoblot; both purified"}}, "note": "Results are given in words; binding and its absence hold for the method and conditions named. For some of these results: In cells and extracts the contact can be indirect. Some binding calls cover weakened binding; strength is not graded here. For some of these results: Where a sequence is shown, tags or fusion partners need not be part of it.", "data": [{"molecule": "SHP1 (from UniProt P29350 1-595) (enzyme)", "values": [{"measurement": "binding", "setting": "[1]", "result": "no binding"}]}, {"molecule": "endogenous TC45 (T cell protein tyrosine phosphatase) (enzyme, UniProt P17706-2 1-387) MPTTIEREFEELDTQRRWQPLYLEIRNESHDYPHRVAKFPENRNRNRYRDVSPYDHSRVKLQNAENDYINASLVDIEEAQRSYILTQGPLPNTCCHFWLMVWQQKTKAVVMLNRIVEKESVKCAQYWPTDDQEMLFKETGFSVKLLSEDVKSYYTVHLLQLENINSGETRTISHFHYTTWPDFGVPESPASFLNFLFKVRESGSLNPDHGPAVIHCSAGIGRSGTFSLVDTCLVLMEKGDDINIKQVLLNMRKYRMGLIQTPDQLRFSYMAIIEGAKCIKGDSSIQKRWKELSKEDLSPAFDHSPNKIMTEKYNGNRIGLEEEKLTGDRCTGLSSKMQDTMEENSESALRKRIREDRKATTAQKVQQMKQRLNENERKRKRPRLTDT", "values": [{"measurement": "binding", "setting": "[1]", "result": "binds"}, {"measurement": "binding", "setting": "[2]", "result": "binds"}, {"measurement": "binding", "setting": "[3]", "result": "binds"}]}, {"molecule": "Myc-TC45 (enzyme, UniProt P17706-2 1-387) MPTTIEREFEELDTQRRWQPLYLEIRNESHDYPHRVAKFPENRNRNRYRDVSPYDHSRVKLQNAENDYINASLVDIEEAQRSYILTQGPLPNTCCHFWLMVWQQKTKAVVMLNRIVEKESVKCAQYWPTDDQEMLFKETGFSVKLLSEDVKSYYTVHLLQLENINSGETRTISHFHYTTWPDFGVPESPASFLNFLFKVRESGSLNPDHGPAVIHCSAGIGRSGTFSLVDTCLVLMEKGDDINIKQVLLNMRKYRMGLIQTPDQLRFSYMAIIEGAKCIKGDSSIQKRWKELSKEDLSPAFDHSPNKIMTEKYNGNRIGLEEEKLTGDRCTGLSSKMQDTMEENSESALRKRIREDRKATTAQKVQQMKQRLNENERKRKRPRLTDT", "values": [{"measurement": "binding", "setting": "[4]", "result": "binds"}, {"measurement": "binding", "setting": "[5]", "result": "binds"}]}, {"molecule": "recombinant TC45 protein with His tag (enzyme, UniProt P17706-2 1-387) MPTTIEREFEELDTQRRWQPLYLEIRNESHDYPHRVAKFPENRNRNRYRDVSPYDHSRVKLQNAENDYINASLVDIEEAQRSYILTQGPLPNTCCHFWLMVWQQKTKAVVMLNRIVEKESVKCAQYWPTDDQEMLFKETGFSVKLLSEDVKSYYTVHLLQLENINSGETRTISHFHYTTWPDFGVPESPASFLNFLFKVRESGSLNPDHGPAVIHCSAGIGRSGTFSLVDTCLVLMEKGDDINIKQVLLNMRKYRMGLIQTPDQLRFSYMAIIEGAKCIKGDSSIQKRWKELSKEDLSPAFDHSPNKIMTEKYNGNRIGLEEEKLTGDRCTGLSSKMQDTMEENSESALRKRIREDRKATTAQKVQQMKQRLNENERKRKRPRLTDT", "values": [{"measurement": "binding", "setting": "[6]", "result": "binds"}]}, {"molecule": "Flag-ETHE1 (ethylmalonic encephalopathy protein 1) (protein, UniProt O95571 8-254) VARRQLSQRGGSGAPILLRQMFEPVSCTFTYLLGDRESREAVLIDPVLETAPRDAQLIKELGLRLLYAVNTHCHADHITGSGLLRSLLPGCQSVISRLSGAQADLHIEDGDSIRFGRFALETRASPGHTPGCVTFVLNDHSMAFTGDALLIRGCGRTDFQQGCAKTLYHSVHEKIFTLPGDCLIYPAHDYHGFTVSTVEEERTLNPRLTLSCEEFVKIMGNLNLPKPQQIDFAVPANMRCGVQTPTA", "values": [{"measurement": "binding", "setting": "[5]", "result": "binds"}]}, {"molecule": "endogenous ETHE1 (protein, UniProt O95571 8-254) VARRQLSQRGGSGAPILLRQMFEPVSCTFTYLLGDRESREAVLIDPVLETAPRDAQLIKELGLRLLYAVNTHCHADHITGSGLLRSLLPGCQSVISRLSGAQADLHIEDGDSIRFGRFALETRASPGHTPGCVTFVLNDHSMAFTGDALLIRGCGRTDFQQGCAKTLYHSVHEKIFTLPGDCLIYPAHDYHGFTVSTVEEERTLNPRLTLSCEEFVKIMGNLNLPKPQQIDFAVPANMRCGVQTPTA", "values": [{"measurement": "binding", "setting": "[3]", "result": "binds"}]}, {"molecule": "His-ETHE1 protein (protein, UniProt O95571 8-254) VARRQLSQRGGSGAPILLRQMFEPVSCTFTYLLGDRESREAVLIDPVLETAPRDAQLIKELGLRLLYAVNTHCHADHITGSGLLRSLLPGCQSVISRLSGAQADLHIEDGDSIRFGRFALETRASPGHTPGCVTFVLNDHSMAFTGDALLIRGCGRTDFQQGCAKTLYHSVHEKIFTLPGDCLIYPAHDYHGFTVSTVEEERTLNPRLTLSCEEFVKIMGNLNLPKPQQIDFAVPANMRCGVQTPTA", "values": [{"measurement": "binding", "setting": "[6]", "result": "binds"}]}]}
